Experimental findings from the supplement of paper PMC3334620 are described below.

In all, about 33,000 sequences were measured (“E-score (-0.5 to 0.5)”: median about -0.017, highest 2% from about 0.3 on). The list shows a part of the results.

This assay has as its target T1, Sut1 (UniProt P53032).
T1 sequence: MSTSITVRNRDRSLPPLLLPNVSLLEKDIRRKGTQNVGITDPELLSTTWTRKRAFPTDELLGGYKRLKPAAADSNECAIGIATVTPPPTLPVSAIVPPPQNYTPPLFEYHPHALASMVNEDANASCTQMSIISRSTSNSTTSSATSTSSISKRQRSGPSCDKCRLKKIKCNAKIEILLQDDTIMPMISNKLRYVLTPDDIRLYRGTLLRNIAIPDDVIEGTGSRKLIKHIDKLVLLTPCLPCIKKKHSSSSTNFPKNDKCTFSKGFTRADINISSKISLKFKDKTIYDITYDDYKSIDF
Put plainly: PBM E-score (8-mer binding enrichment) (E-score (-0.5 to 0.5)); higher = stronger / more preferred TF binding; most listed sequences are background and not binding sites. The note with it: protein concentration: 200 nM; construct: GST-full length. The method in brief:
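Universal all-10-mer Agilent arrays, fresh or stripped once, were converted to double-stranded form by primer extension. GST-tagged yeast transcription factors from PURExpress in vitro transcription/translation, full-length or DNA-binding domain only, were applied at about 100-200 nM and detected with fluorescent anti-GST. After masliner normalisation, the Universal PBM Analysis Suite scored each ungapped eight-base word together with its reverse complement by E-score.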
As for CTGTTGAC, the “PBM E-score” value is -0.168.
With ACATGTGA, the “PBM E-score” value turned out to be 0.076.
ACTTTATA: the “PBM E-score” value amounted to 0.242.
With CGACCTAG, the “PBM E-score” value is -0.066.
The value for AATACACC was 0.154.
Regarding AGGAATGG, the “PBM E-score” value is -0.156.
On to GATCATAC, for which the “PBM E-score” value was -0.0286.
With AGACTTCC, the “PBM E-score” value was -0.233.
For CTTTGTCA, the “PBM E-score” value was 0.0177.
As to ACCGCAAG, the “PBM E-score” value is -0.0139.
In the case of ATAACGTC, the “PBM E-score” value was -0.0614.
Regarding GCGCTTCC, the “PBM E-score” value was -0.0879.
For the sequence GCTTGAAA, the “PBM E-score” value came out at 0.0768.
In the case of TCGCTTCA, the “PBM E-score” value was determined as 0.0692.
On to GCCCCAAA, for which the “PBM E-score” value was -0.181.
In the case of GGCAGACA, the “PBM E-score” value was -0.215.
As to CTGAGTAC, the “PBM E-score” value was -0.0624.
Turning to GCTCGGCA, the “PBM E-score” value is -0.0858.
The value for CGTCTAAA was -0.0444.
The figure for CCGGCATA is 0.027.
The value for CAATCTAC was -0.0848; that for GGTGCGAC was -0.193; that for CCAGATAC was 0.0631.
Take GCTCAATA: the “PBM E-score” value is -0.00174.
The value for AGTTCAAA was 0.233; that for AACCCTAT was -0.0821; that for AGGCCTAG was -0.193.
On to CAGAATAA, for which the “PBM E-score” value stood at 0.0737.
With CTGCAGAC, the “PBM E-score” value is -0.0823.
Regarding ATAAATAG, the “PBM E-score” value is 0.295.
For GCATTATA, the “PBM E-score” value was 0.118.
Regarding AAGTTCGC, the “PBM E-score” value was -0.0687.
As to ACTGCCCC, the “PBM E-score” value was -0.282.
Turning to GGAATGAA, the “PBM E-score” value is 0.166.
In the case of AAGTACAT, the “PBM E-score” value was found to be 0.142.
As for TCAGTAGA, the “PBM E-score” value is -0.0236.
Regarding TCCTGTCA, the “PBM E-score” value was -0.00798.
The figure for CTAGGAAG is -0.0495; for CACCCGTG it is -0.228; for CGTGGTTC it is -0.00828.
For the sequence AATTCCCC, the “PBM E-score” value amounted to 0.022.
The figure for CTTTAGAC is 0.00347; for GTCTATTA it is -0.0459.
In the case of ACTCGCAG, the “PBM E-score” value was -0.117.
Regarding TTATAAAA, the “PBM E-score” value is 0.314.
With GAACTGTC, the “PBM E-score” value stood at 0.00324.
Regarding CGAACTCG, the “PBM E-score” value was -0.0661.
Turning to AGGCGATG, the “PBM E-score” value is -0.165.
GAGAGGAC: the “PBM E-score” value is -0.105.
Regarding CCTCAGCA, the “PBM E-score” value is -0.395.
For the sequence CCGTCGTA, the “PBM E-score” value is -0.104.
The figure for CCTTAGAG is -0.27; for TCTACTCA it is 0.107; for AACTCCCC it is -0.0339.
The value for CCTATTCA was -0.0075.
CACTTGGC: the “PBM E-score” value is -0.162.
For the sequence CCGTAATC, the “PBM E-score” value was 0.0754.
For AAGACCCT, the “PBM E-score” value was -0.219.
The figure for AAGGACCC is -0.188; for ACGAGATA it is -0.0793.
For the sequence GAAAATCC, the “PBM E-score” value stood at 0.111.
For the sequence GTATGGAC, the “PBM E-score” value was found to be 0.0997.
With GGATATCA, the “PBM E-score” value is -0.0876.
Turning to GCGCACGA, the “PBM E-score” value was -0.0416.
Consider TCTCCACA, for which the “PBM E-score” value was -0.0497.
Take CACTGCGG: the “PBM E-score” value came to 0.0495.
The value for CAGAGGCC was -0.38.
With AACAATGC, the “PBM E-score” value is 0.102.
With AGGTCCGG, the “PBM E-score” value worked out at 0.461.
The figure for ACAGAACG is -0.0202.
For the sequence CTCCGCTA, the “PBM E-score” value was determined as 0.301.
Turning to AAGTCCGC, the “PBM E-score” value was found to be 0.486.
The figure for CGCCTGCC is -0.252; for GCTACCGA it is 0.0694; for GCTCTCAC it is -0.181.
With CCTCACCC, the “PBM E-score” value is 0.0784.
Turning to AAGCTCAT, the “PBM E-score” value is -0.249.
As to AGGATCCA, the “PBM E-score” value is -0.00501.
For the sequence AACGCTAC, the “PBM E-score” value was -0.026.
Regarding AACCTCTT, the “PBM E-score” value was found to be 0.18.
The value for ATATCGTC was -0.0971.
With GCAAATCA, the “PBM E-score” value is 0.0186.
The figure for ACGCTGCA is -0.198; for CCGAGAAC it is 0.274; for CAACCGTA it is -0.287.
For the sequence AAATAGCG, the “PBM E-score” value amounted to 0.0887.
As for GGATCGAA, the “PBM E-score” value was -0.0726.
Take CGCTATCA: the “PBM E-score” value is -0.144.
Regarding GACGCACC, the “PBM E-score” value was -0.235.
The value for CAAAACTA was 0.268; that for AATCCTCA was 0.00363; that for AAGCTGCC was -0.276.
Regarding ACCTTGTA, the “PBM E-score” value was determined as 0.00241.
On to GTCGGTGA, for which the “PBM E-score” value is -0.202.
On to GATCCCTA, for which the “PBM E-score” value was -0.0568.
The figure for CACGAAAA is 0.117; for ACACCTTG it is -0.0462.
For AACTCCCA, the “PBM E-score” value was -0.0126.
The value for AGGCCTAA was -0.0602; that for ATAATATG was 0.286.
With CCGTTTTC, the “PBM E-score” value turned out to be 0.0524.
CCCCTGTC: the “PBM E-score” value is -0.371.
The value for CAATGTAC was -0.162; that for GGATCAAC was 0.0423; that for GATGACTA was -0.0602.
Take ATACTAGC: the “PBM E-score” value was determined as 0.021.
AGCGGACT: the “PBM E-score” value was determined as 0.406.
For AACGTTAA, the “PBM E-score” value amounted to 0.158.
Consider ATTAGGAA, for which the “PBM E-score” value was 0.0997.
Take GATTTCCC: the “PBM E-score” value worked out at 0.0847.
